{"source": "the supplement of paper PMC8728848", "binders": {"B1": {"name": "Thrombomodulin (Mus musculus) (protein)", "chain": "ALAKLQPTGSQCVEHECFALFQGPATFLDASQACQRLQGHLMTVRSSVAADVISLLLSQSSMDLGPWIGLQLPQGCDDPVHLGPLRGFQWVTGDNHTSYSRWARPNDQTAPLCGPLCVTVSTATEAAPGEPAWEEKPCETETQGFLCEFYFTASC"}}, "test_in_all_cases": "glycan array binding signal (z-score within array); higher = stronger binding", "settings_in_all_cases": "glycan notation: IUPAC condensed, linker removed", "key": {"Gal3S(b1-4)Glc": {"target": "Gal3S(b1-4)Glc", "method_in_brief": "(§1)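 Negative Z-scores can be read as non-binding. The Z-score is calculated within each array and then averaged across arrays of one protein sequence at different concentrations or buffers and across linkers. Arrays, 3228 in all, were curated from the Consortium for Functional Glycomics database and kept only where the protein sequence was available.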"}, "Gal3S(b1-4)Glc6S": {"target": "Gal3S(b1-4)Glc6S", "method_in_brief": "as §1"}, "Gal3S(b1-4)GlcNAc": {"target": "Gal3S(b1-4)GlcNAc", "method_in_brief": "as §1"}, "[1]": {"target": "Gal3S(b1-4)[Fuc(a1-3)]Glc6S", "method_in_brief": "as §1"}, "[2]": {"target": "Gal3S(b1-4)[Fuc(a1-3)]GlcNAc", "method_in_brief": "as §1"}, "[3]": {"target": "Gal3S(b1-4)[Fuc(a1-3)]GlcNAc6S", "method_in_brief": "as §1"}, "Gal3S4S(b1-4)GlcNAc": {"target": "Gal3S4S(b1-4)GlcNAc", "method_in_brief": "as §1"}, "Gal3S6S(b1-4)GlcNAc": {"target": "Gal3S6S(b1-4)GlcNAc", "method_in_brief": "as §1"}, "Gal3S6S(b1-4)GlcNAc6S": {"target": "Gal3S6S(b1-4)GlcNAc6S", "method_in_brief": "as §1"}, "Gal4S(b1-4)GlcNAc": {"target": "Gal4S(b1-4)GlcNAc", "method_in_brief": "as §1"}, "Gal4S6S(b1-4)GlcNAc": {"target": "Gal4S6S(b1-4)GlcNAc", "method_in_brief": "as §1"}, "Gal6P(b1-4)GlcNAc": {"target": "Gal6P(b1-4)GlcNAc", "method_in_brief": "as §1"}, "Gal6S(b1-3)GlcNAc": {"target": "Gal6S(b1-3)GlcNAc", "method_in_brief": "as §1"}, "Gal6S(b1-3)GlcNAc6S": {"target": "Gal6S(b1-3)GlcNAc6S", "method_in_brief": "as §1"}, "Gal6S(b1-4)Glc": {"target": "Gal6S(b1-4)Glc", "method_in_brief": "as §1"}, "Gal6S(b1-4)Glc6S": {"target": "Gal6S(b1-4)Glc6S", "method_in_brief": "as §1"}, "Gal6S(b1-4)GlcNAc": {"target": "Gal6S(b1-4)GlcNAc", "method_in_brief": "as §1"}, "Gal6S(b1-4)GlcNAc6S": {"target": "Gal6S(b1-4)GlcNAc6S", "method_in_brief": "as §1"}, "GalNAc(a1-3)Gal": {"target": "GalNAc(a1-3)Gal", "method_in_brief": "as §1"}, "GalNAc(a1-3)GalNAc": {"target": "GalNAc(a1-3)GalNAc", "method_in_brief": "as §1"}, "[4]": {"target": "GalNAc(a1-3)GalNAc(b1-3)Gal(a1-4)Gal(b1-4)Glc", "method_in_brief": "as §1"}, "[5]": {"target": "GalNAc(a1-3)GalNAc(b1-3)Gal(a1-4)Gal(b1-4)GlcNAc", "method_in_brief": "as §1"}, "GalNAc(b1-3)Gal": {"target": "GalNAc(b1-3)Gal", "method_in_brief": "as §1"}, "[6]": {"target": "GalNAc(b1-3)Gal(a1-4)Gal(b1-4)GlcNAc", "method_in_brief": "as §1"}, "[7]": {"target": "GalNAc(b1-3)Gal(a1-4)Gal(b1-4)GlcNAc(b1-3)Gal(b1-4)Glc", "method_in_brief": "as §1"}, "[8]": {"target": "GalNAc(b1-3)Gal(a1-6)Gal(b1-4)Glc", "method_in_brief": "as §1"}, "GalNAc(b1-3)GalNAc": {"target": "GalNAc(b1-3)GalNAc", "method_in_brief": "as §1"}, "GalNAc(b1-3)GlcNAc": {"target": "GalNAc(b1-3)GlcNAc", "method_in_brief": "as §1"}, "GalNAc(b1-4)Gal(b1-4)Glc": {"target": "GalNAc(b1-4)Gal(b1-4)Glc", "method_in_brief": "as §1"}, "GalNAc(b1-4)GlcNAc": {"target": "GalNAc(b1-4)GlcNAc", "method_in_brief": "as §1"}, "[9]": {"target": "GalNAc(b1-4)GlcNAc(b1-2)Man", "method_in_brief": "as §1"}, "[10]": {"target": "GalNAc(b1-4)GlcNAc(b1-2)Man(a1-3)[GalNAc(b1-4)GlcNAc(b1-2)Man(a1-6)]Man(b1-4)GlcNAc(b1-4)GlcNAc", "method_in_brief": "as §1"}, "[11]": {"target": "GalNAc(b1-4)GlcNAc(b1-3)GalNAc(b1-4)GlcNAc", "method_in_brief": "as §1"}, "GalNAc(b1-4)GlcNAc6S": {"target": "GalNAc(b1-4)GlcNAc6S", "method_in_brief": "as §1"}, "GalNAc(b1-6)GalNAc": {"target": "GalNAc(b1-6)GalNAc", "method_in_brief": "as §1"}, "GalNAc3S(b1-4)GlcNAc": {"target": "GalNAc3S(b1-4)GlcNAc", "method_in_brief": "as §1"}, "GalNAc3S(b1-4)GlcNAc3S": {"target": "GalNAc3S(b1-4)GlcNAc3S", "method_in_brief": "as §1"}, "[12]": {"target": "GalNAc3S(b1-4)[Fuc(a1-3)]GlcNAc", "method_in_brief": "as §1"}, "GalNAc4S6S(b1-4)GlcNAc": {"target": "GalNAc4S6S(b1-4)GlcNAc", "method_in_brief": "as §1"}, "GalNAc6S(b1-4)GlcNAc": {"target": "GalNAc6S(b1-4)GlcNAc", "method_in_brief": "as §1"}, "Glc(a1-4)Glc": {"target": "Glc(a1-4)Glc", "method_in_brief": "as §1"}, "[13]": {"target": "Glc(a1-4)Glc(a1-4)Glc(a1-4)Glc", "method_in_brief": "as §1"}, "Glc(a1-6)Glc(a1-6)Glc": {"target": "Glc(a1-6)Glc(a1-6)Glc", "method_in_brief": "as §1"}, "[14]": {"target": "Glc(a1-6)Glc(a1-6)Glc(a1-6)Glc", "method_in_brief": "as §1"}, "Glc(b1-4)Glc": {"target": "Glc(b1-4)Glc", "method_in_brief": "as §1"}}, "note": "Some of the results follow.", "data": [{"binder": "B1", "values": [{"measurement": "glycan array binding signal (z-score)", "setting": "Gal3S(b1-4)Glc", "result": 0.348}, {"measurement": "glycan array binding signal (z-score)", "setting": "Gal3S(b1-4)Glc6S", "result": -0.028}, {"measurement": "glycan array binding signal (z-score)", "setting": "Gal3S(b1-4)GlcNAc", "result": -0.079}, {"measurement": "glycan array binding signal (z-score)", "setting": "[1]", "result": 0.12}, {"measurement": "glycan array binding signal (z-score)", "setting": "[2]", "result": -0.174}, {"measurement": "glycan array binding signal (z-score)", "setting": "[3]", "result": 0.146}, {"measurement": "glycan array binding signal (z-score)", "setting": "Gal3S4S(b1-4)GlcNAc", "result": -0.106}, {"measurement": "glycan array binding signal (z-score)", "setting": "Gal3S6S(b1-4)GlcNAc", "result": -0.189}, {"measurement": "glycan array binding signal (z-score)", "setting": "Gal3S6S(b1-4)GlcNAc6S", "result": 0.01}, {"measurement": "glycan array binding signal (z-score)", "setting": "Gal4S(b1-4)GlcNAc", "result": -0.066}, {"measurement": "glycan array binding signal (z-score)", "setting": "Gal4S6S(b1-4)GlcNAc", "result": 0.303}, {"measurement": "glycan array binding signal (z-score)", "setting": "Gal6P(b1-4)GlcNAc", "result": -0.432}, {"measurement": "glycan array binding signal (z-score)", "setting": "Gal6S(b1-3)GlcNAc", "result": -0.18}, {"measurement": "glycan array binding signal (z-score)", "setting": "Gal6S(b1-3)GlcNAc6S", "result": -0.035}, {"measurement": "glycan array binding signal (z-score)", "setting": "Gal6S(b1-4)Glc", "result": -0.113}, {"measurement": "glycan array binding signal (z-score)", "setting": "Gal6S(b1-4)Glc6S", "result": 0.023}, {"measurement": "glycan array binding signal (z-score)", "setting": "Gal6S(b1-4)GlcNAc", "result": 0.002}, {"measurement": "glycan array binding signal (z-score)", "setting": "Gal6S(b1-4)GlcNAc6S", "result": -0.283}, {"measurement": "glycan array binding signal (z-score)", "setting": "GalNAc(a1-3)Gal", "result": 0.15}, {"measurement": "glycan array binding signal (z-score)", "setting": "GalNAc(a1-3)GalNAc", "result": -0.213}, {"measurement": "glycan array binding signal (z-score)", "setting": "[4]", "result": -0.248}, {"measurement": "glycan array binding signal (z-score)", "setting": "[5]", "result": 0.145}, {"measurement": "glycan array binding signal (z-score)", "setting": "GalNAc(b1-3)Gal", "result": -0.296}, {"measurement": "glycan array binding signal (z-score)", "setting": "[6]", "result": -0.379}, {"measurement": "glycan array binding signal (z-score)", "setting": "[7]", "result": -0.108}, {"measurement": "glycan array binding signal (z-score)", "setting": "[8]", "result": -0.441}, {"measurement": "glycan array binding signal (z-score)", "setting": "GalNAc(b1-3)GalNAc", "result": -0.316}, {"measurement": "glycan array binding signal (z-score)", "setting": "GalNAc(b1-3)GlcNAc", "result": -0.37}, {"measurement": "glycan array binding signal (z-score)", "setting": "GalNAc(b1-4)Gal(b1-4)Glc", "result": -0.054}, {"measurement": "glycan array binding signal (z-score)", "setting": "GalNAc(b1-4)GlcNAc", "result": 0.33}, {"measurement": "glycan array binding signal (z-score)", "setting": "[9]", "result": -0.08}, {"measurement": "glycan array binding signal (z-score)", "setting": "[10]", "result": -0.166}, {"measurement": "glycan array binding signal (z-score)", "setting": "[11]", "result": -0.236}, {"measurement": "glycan array binding signal (z-score)", "setting": "GalNAc(b1-4)GlcNAc6S", "result": -0.36}, {"measurement": "glycan array binding signal (z-score)", "setting": "GalNAc(b1-6)GalNAc", "result": -0.209}, {"measurement": "glycan array binding signal (z-score)", "setting": "GalNAc3S(b1-4)GlcNAc", "result": 0.212}, {"measurement": "glycan array binding signal (z-score)", "setting": "GalNAc3S(b1-4)GlcNAc3S", "result": 0.001}, {"measurement": "glycan array binding signal (z-score)", "setting": "[12]", "result": 0.028}, {"measurement": "glycan array binding signal (z-score)", "setting": "GalNAc4S6S(b1-4)GlcNAc", "result": -0.251}, {"measurement": "glycan array binding signal (z-score)", "setting": "GalNAc6S(b1-4)GlcNAc", "result": -0.071}, {"measurement": "glycan array binding signal (z-score)", "setting": "Glc(a1-4)Glc", "result": 0.026}, {"measurement": "glycan array binding signal (z-score)", "setting": "[13]", "result": 0.352}, {"measurement": "glycan array binding signal (z-score)", "setting": "Glc(a1-6)Glc(a1-6)Glc", "result": -0.325}, {"measurement": "glycan array binding signal (z-score)", "setting": "[14]", "result": -0.276}, {"measurement": "glycan array binding signal (z-score)", "setting": "Glc(b1-4)Glc", "result": -0.188}]}]}
